Experimental data from PubChem BioAssay (NCATS).
Where “and” joins values, the source holds several entries; their conditions need not be identical. Equal entries are not always repeated. The shares of active, inactive and inconclusive entries below differ from those in the screen. Potencies of inconclusive entries are doubtful fits and often do not repeat. Calls of active or inactive are those of the source. Calls come from the whole dose curve; as a rule, active = well fitted cell-killing curve with a large enough effect; inconclusive = small, poorly fitted or top-dose-only effect; inactive = no such curve, though single readings can be large or run the other way. Bridge positions count the residues as written; N and C are the ends. Square brackets hold non-standard residues; d marks the D form. Residues, ends and D or L forms follow the SMILES beside them. Peptide text beside a SMILES is read from it. * marks the point of attachment. ξ: configuration not given here. Octanoyl(6-Me) = CCC(C)CCCCC(=O)*; ξThr(3R) = C[C@@H](O)C(N)C(=O)O; dDab = NCC[C@@H](N)C(=O)O; Dab = NCC[C@H](N)C(=O)O

Test: qHTS of pediatric cancer cell lines to identify multiple opportunities for drug repurposing: Primary screen for NB-EBc1 cells (AID 1347095);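 for activity change, negative = cytotoxic: plate controls were DMSO neutral control for no effect and bortezomib for full effect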
Conditions: NB-EBc1 neuroblastoma viability, CellTiter-Glo luminescence, 48 h; series mostly up to 46 µM; activity change, negative = cytotoxic: at the top concentration
Method in brief: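 Cells plated at 500-1,000/well in growth medium, compounds added after 5 h. MIPE tested at 11 points (from 0.78 nM), NPC at 8 points (from 0.59 nM). CellTiter-Glo luminescence after 48 h; concentration-response curves from primary screen.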
Potency is the fitted concentration of half-maximal effect; tags give direction and shape of the fitted curve.

| SMILES | Potency | activity change, negative = cytotoxic |
| --- | --- | --- |
| Cc1cnc(C(=O)NCCc2ccc(S(=O)(=O)NC(=O)NC3CCCCC3)cc2)cn1 | inconclusive: 18.7 µM [cytotoxic, partial curve, poor fit] |  |
| N[C@H]1CN(c2c(F)cc3c(=O)c(C(=O)O)cn(C4C[C@@H]4F)c3c2Cl)CC12CC2 (stereo not given in full) |  | inactive: 69.4% |
| C=C[C@@H]1CN2CCC1C[C@@H]2C(O)c1ccnc2ccc(OC)cc12 (stereo not given in full) | inconclusive: 2.35 µM [cytotoxic, partial curve, poor fit] |  |
| CC(CCc1ccc(O)cc1)NCCc1ccc(O)c(O)c1 (stereo not given) | inconclusive: 18.7 µM [cytotoxic, single point] and inconclusive: 18.8 µM [cytotoxic, single point] |  |
| Cc1cc2c(cc1C1(c3ccc(C(=O)O)cn3)CC1)C(C)(C)CCC2(C)C | inconclusive: 16.6 µM [cytotoxic, partial curve] |  |
| N#Cc1ccc(Oc2ccc3c(c2)COB3O)cc1 | inconclusive: 23.5 µM [cytotoxic, partial curve, poor fit] |  |
| CN1C(=O)C[C@H](C(=O)N[C@@H](Cc2cnc[nH]2)C(=O)N2CCC[C@@H]2C(N)=O)NC1=O | inconclusive: 18.7 µM [cytotoxic, partial curve, poor fit] |  |
| NC(=O)c1nnn(Cc2cc(Cl)c(C(=O)c3ccc(Cl)cc3)c(Cl)c2)c1N | inconclusive: 26.4 µM [cytotoxic, single point] |  |
| NS(=O)(=O)c1ccc(NC2=CC(=O)c3ccccc3C2=O)cc1 | inconclusive: 10.5 µM [cytotoxic, full curve, poor fit] |  |
| O=C(C1CC1)N1CC[C@@H](Cn2c(-c3ccc(-c4ccc5occc5c4)cc3)nc3cnccc32)C1 | active: 13.2 µM |  |
| CO[C@H]1C=CO[C@@]2(C)Oc3c(C)c(O)c4c(O)c(c5c(c4c3C2=O)NC2(CCN(CC(C)C)CC2)N=5)=NC(=O)C(C)=CC=C[C@H](C)[C@H](O)[C@@H](C)[C@@H](O)[C@@H](C)[C@H](OC(C)=O)[C@H]1C |  | inactive: 17.1% |
| CCCCC(C=O)NC(=O)C(CC(C)C)NC(=O)OCc1ccccc1 (stereo not given) |  | inactive: -16.2% |
| COc1ccc2nc3cc(Cl)ccc3c(Nc3cc(CN4CCCC4)c(O)c(CN4CCCC4)c3)c2n1 | inconclusive: 29.6 µM [cytotoxic, single point] |  |
| O=C(Nc1cc(Cl)cc2c1[nH]c1cnccc12)c1cccnc1 | inconclusive: 16.6 µM [cytotoxic, partial curve] |  |
| C[C@H]1c2cccc(O)c2C(O)=C2C(=O)[C@]3(O)C(O)=C(C(N)=O)C(=O)[C@@H](N(C)C)[C@@H]3[C@@H](O)[C@@H]21 | inactive |  |
| CO[C@H]1C[C@@H]2CC[C@@H](C)[C@@](O)(O2)C(=O)C(=O)N2CCCC[C@@H]2C(=O)O[C@H]([C@@H](C)C[C@@H]2CC[C@H](O)[C@H](OC)C2)CC(=O)[C@H](C)C=C(C)[C@@H](O)[C@@H](OC)C(=O)[C@H](C)C[C@H](C)C=CC=CC=C1C | inconclusive: 26.4 µM [cytotoxic, single point] |  |
| O=C(CCc1ccc(O)cc1)c1c(O)cc(O)cc1O | inconclusive: 1.05 µM [cytotoxic, full curve] |  |
| CC(C)=CC[C@@H](O)C1=CC(=O)c2c(O)ccc(O)c2C1=O | active: 0.743 µM |  |
| COC1CCC(N(C(=O)C2CCC(C)CC2)c2cc(C3=CCCCC3)sc2C(=O)O)CC1 (stereo not given) | inconclusive: 18.7 µM [cytotoxic, partial curve, poor fit] |  |
| CCOc1ccc(Nc2nc(-c3c(C)nc4ccccn34)cs2)cc1 | inconclusive: 0.0105 µM [cytotoxic, full curve] |  |
| O=C(c1cncc(Br)c1)N1CCC(N2CCCC2)CC1 | inconclusive: 0.0187 µM [cytotoxic, full curve, poor fit] |  |
| Cc1onc(-c2ccccc2)c1C(=O)N[C@@H]1C(=O)N2[C@@H](C(=O)O)C(C)(C)S[C@@H]12 |  | inactive: 14.6% |
| C[C@]1(c2nc3c(C(N)=O)cccc3[nH]2)CCCN1 | inconclusive: 20.9 µM [cytotoxic, single point] |  |
| CCC(C)CCCCC(=O)N[C@@H](CCN)C(=O)NC(C(=O)N[C@H](CCN)C(=O)N[C@@H]1CCNC(=O)C([C@@H](C)O)NC(=O)[C@@H](CCN)NC(=O)[C@@H](CCN)NC(=O)[C@@H](CC(C)C)NC(=O)[C@H](Cc2ccccc2)NC(=O)[C@H](CCN)NC1=O)[C@@H](C)O (stereo partly drawn) ({Octanoyl(6-Me)}-[Dab][ξThr(3R)][dDab][dDab][Dab]F[dL][dDab][dDab][ξThr(3R)]; lactam 4-C) | inconclusive: 11.8 µM [cytotoxic, single point] |  |
| COC(=O)[C@H](Cc1ccccc1)NC(=O)[C@@H](N)CC(=O)O (H-Asp-Phe-OMe) | inactive |  |
